In PubChem BioAssay AID1347417 (National Center for Advancing Translational Sciences (NCATS), 2020):
Screen size: about 120,000 compounds; about 5,300 (4.4%) were called active. This list was built around the results that the source calls inconclusive (neither active nor inactive); the mix of calls is not that of the screen. The call rests on the fitted dose curve; in most records, active means well fitted inhibition curve with a large enough effect; inconclusive means small, poorly fitted or top-dose-only effect; inactive means no such curve, though single readings can be large or run the other way. Potencies beside an inconclusive call are fits to weak or partial responses and may not hold up.
Potency means the concentration at half of the fitted maximal effect; tags describe the fitted curve by direction and shape.

Experiment: qHTS Primary assay for Inhibitors of Plasmodium falciparum Dd2 growth in vitro; further: nearly all actives have a fitted effect of over 65% in size
Details: P. falciparum Dd2 growth, SYBR Green, 72 h; series mostly up to 28.9 µM
How it was run: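 Readout: SYBR Green fluorescence, 485 nm excitation, 535 nm emission, after ~16 h lysis at 37C. Before that, Dd2-infected red cells (2.5% hematocrit) grew 72 h with compound, 29 uM top final concentration.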
With `O=C(CCC[C@@H]1[C@H]2CCCN3CCC[C@@H](CN1Cc1ccccc1)[C@@H]23)N1CCCC1` the Potency was inconclusive: 3.98 µM [inhibitor, single point]. With `COC(=O)COCC(=O)N1Cc2[nH]cnc2C[C@H]1c1nc(-c2ccc(F)c(Cl)c2)no1` the Potency was inconclusive: 6.31 µM [inhibitor, partial curve, poor fit]. In the case of `COc1cccc(-c2cc(C(=O)Nc3ccc(F)cc3)[nH]n2)c1`, the Potency is reported as active: 2.51 µM. For `COc1ccc(-c2noc(CC3CCN(C(=O)c4ccc(OC)c(OC)c4)CC3)n2)cc1`, the Potency was inconclusive: 6.31 µM [inhibitor, partial curve]. With `O=C(Nc1cnc(-c2ccc(Cl)cc2)nc1)C1CCC1` the Potency was inconclusive: 3.98 µM [inhibitor, single point]. With `Cc1cccn2c(=O)c(/C=C(\C#N)c3nc4ccccc4n3C)c(Oc3ccc(Cl)cc3)nc12` the Potency was inconclusive: 3.55 µM [inhibitor, partial curve]. In the case of `O=C(C1CCCCC1)N1C[C@@H]2C[C@H](C1)c1ccc(-c3cccc(C(F)(F)F)c3)c(=O)n1C2`, the Potency is reported as “inactive”. With `O=S(=O)(c1cccc2ccccc12)N1CCCC(CO)(Cc2cccc(Cl)c2)C1` (configuration not stated) the Potency was inconclusive: 12.6 µM [inhibitor, single point]. In the case of `CCc1nc2c(c(-c3ccc(OC)cc3)n1)CCN(Cc1cccc3ccccc13)CC2`, the Potency is reported as inconclusive: 11.2 µM [inhibitor, single point]. For `CCn1ccc2sc(C)c(C(=O)NCc3ccccc3C)c2c1=O`, the Potency was inconclusive: 20 µM [inhibitor, single point]. In the case of `CCOC(=O)c1c(C)[nH]c(CCC(=O)Nc2c(C)cccc2CC)c1C`, the Potency is reported as inconclusive: 11.2 µM [inhibitor, single point]. For `CCC(=O)Nc1ccccc1-c1nc2ccccc2n(CC(=O)c2ccc(Cl)cc2)c1=O`, the Potency was inconclusive: 5.01 µM [inhibitor, partial curve, poor fit]. In the case of `O=C(Cc1c(F)cccc1Cl)N1C[C@@H](CO)[C@H](c2ccncc2)C1`, the Potency is reported as “inactive”. With `CCOC(=O)N1CCc2c(sc(NCc3cccc(F)c3)c2C(=O)Nc2ccc(OC)cc2OC)C1` the Potency was active: 3.98 µM. In the case of `COC1CCC(C(=O)N2CCCn3nc(C)c(-c4ccccc4Oc4ccccc4)c32)CC1` (configuration not stated), the Potency is reported as inconclusive: 2 µM [inhibitor, partial curve, poor fit]. In the case of `CNC(=O)c1noc([C@@H]2CC(F)(F)CN2Cc2cn(C)nc2C)n1`, the Potency is reported as “inactive”. In the case of `COc1cccc(-c2ccc(NC(=O)C3CCCN(C(=O)CC(F)(F)F)C3)cc2)c1` (configuration not stated), the Potency is reported as inconclusive: 17.8 µM [inhibitor, single point].
